Source: publication PMC12136788
The other results are listed elsewhere or left out.

T1: UNK ZnF1-3 (human, UniProt Q9C0B0 31-174)
T1 sequence: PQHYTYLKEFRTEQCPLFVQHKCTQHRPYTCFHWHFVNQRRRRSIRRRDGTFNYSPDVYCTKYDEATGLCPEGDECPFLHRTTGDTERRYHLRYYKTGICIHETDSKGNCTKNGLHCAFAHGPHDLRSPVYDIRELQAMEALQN

B1: chr19:34925787:34925788:+_ENSG00000126261_ENST00000246548|perfect_dup|motif|central (ssRNA)
RNA: GGGAGUUCUACAGUCCGACGAUCAAGAUACCCAGCUGUUCCACUUUCAAUAAGAGGAACAUCAGCUGCCAGGCACAUUCGGUUAACAUGGUUUCGGGCAGCUCUGUUAUCUAAAGCAUUCAUAACCAGUAUAAACUGUCGGAACAACAGAGGAUUGAGCAUCA
B2: chr3:16083472:16083473:+_ENSMUSG00000047213_ENSMUST00000108345|mus_hu|FALSE|FALSE (ssRNA)
RNA: GGGAGUUCUACAGUCCGACGAUCCGAACCGUUUUGUACUGAAACUUUAUUUCCUUGCCCUUUAGGUCUCUGAUCCACGCUAGUGGCUGACAUUCUUCACCGCAACCCGAGAGCCGCCGCCGCCGCCGCUGCCUGGGCCUCUCCCAACAGAGGAUUGAGCAUCA
B3: chr6:31457689:31457690:+_ENSMUSG00000025609_ENSMUST00000142469|perfect_dup|FALSE|FALSE (ssRNA)
RNA: GGGAGUUCUACAGUCCGACGAUCUGAUCAGGUCUACCAGGUUGCCUUUAGGAGGAGUCAUGCUGUCAGGAAAGAAAUUUACUAAGGUGUCAAAGAGCUGAGUUCUUUGAGCAUAGGUAUGAUCCACAUCUGAAAAGCCAUAAUCAACAGAGGAUUGAGCAUCA
B4: chr2:144079538:144079539:-_ENSMUSG00000027423_ENSMUST00000110030|mus_hu|FALSE|FALSE (ssRNA)
RNA: GGGAGUUCUACAGUCCGACGAUCGGCCUUAUCCAGAGCUUUGUUUGAGUUCUCAUAGUCAAUGAGGGCUUUGGUGCGUCUGUAUAAGAGAUCCUUAGCAGCUUCAAUGUUGAGCAUGUAGUAUCGGAGGAGCUCUGUUAGCUUCAACAGAGGAUUGAGCAUCA
B5: chr8:95844298:95844299:+_ENSG00000164941_ENST00000520526|hu_hu|FALSE|FALSE (ssRNA)
RNA: GGGAGUUCUACAGUCCGACGAUCCUAGAGUUCUCAUCGUAUGGACAUAAAGAUCCUUGUUUAAUUUUAGGGCUGCUUCUAGUACCAAAAUAGAAUCAGCAGCUUGUUCUUUGAGCACUUUCAAAAUGUUUUCUGUUAGCUCUUCAACAGAGGAUUGAGCAUCA
B6: chr4:95690885:95690886:+_ENSMUSG00000028572_ENSMUST00000156910|mus_mus|mus_mus_mus_hu_False|78_78 (ssRNA)
RNA: GGGAGUUCUACAGUCCGACGAUCUUUAGAAAAUGUUAAAUACCAUGCUAAAAUAUUGUAAUUUUAAUAUUUUAUUUUACCAGAAGUCACAGGCAAGCAGACACUACAAGAAUAUAUGAAAAUGAAACUCAACAAUAUAACUGUCAACAGAGGAUUGAGCAUCA
B7: chr10:62048396:62048397:-_ENSMUSG00000020075_ENSMUST00000045866|mus_mus|FALSE|FALSE (ssRNA)
RNA: GGGAGUUCUACAGUCCGACGAUCGGCCUCUACAGCUCCCUUCUCCUCAAUCAGCUUCUCAGCUGACUGCUUGAAAUGGCUAAUGGCAGUGGGAGGCACAGAAUCCAAGAGCCUGAUGGCGUCUUUGCUGGAGGCUUUUAUUAUCAACAGAGGAUUGAGCAUCA
B8: chr7:141441981:141441982:+_ENSG00000106028_ENST00000265304|hu_hu|motif|central (ssRNA)
RNA: GGGAGUUCUACAGUCCGACGAUCCUCAUGUCUUACAAACUGACGAAGUACCUGUAAUACAGGUCUUCGAAACAUGGCUUCGGUUUUCUUUUCUUACAGUCUAAUCUUUAGGCUUUUCCUGACGAUCUAACCCGAGCAGCCCAGCAACAGAGGAUUGAGCAUCA
B9: chr4:115894766:115894767:+_ENSMUSG00000028698_ENSMUST00000030464|mus_hu|mus_mus_mus_hu_True|78_78 (ssRNA)
RNA: GGGAGUUCUACAGUCCGACGAUCUUCCACACGGAAAUGUACUUCGGGUUUUCCAACGCCAGUACAAAGUCCGGCCAAACUACCCGAACAGGGUCCUCCCCCUCUCUCCUACAGAACACAACAAAAUGCCCCCGAACUUUCAAGCAACAGAGGAUUGAGCAUCA
B10: chr17:64631184:64631185:-_ENSMUSG00000024083_ENSMUST00000172818|mus_hu|FALSE|FALSE (ssRNA)
RNA: GGGAGUUCUACAGUCCGACGAUCUGGCUUAUUAUAGAGAAAUCUUUAGCAACGUAAGUUUAACCAGUAAGUGUCACAACUGAUCAACAGUACUUAAAAGGAAACAAACAAAAAUCACACUAGCCACAAAUUUCCACCAUAUACCAACAGAGGAUUGAGCAUCA
B11: chr4:76721835:76721836:+_ENSG00000138768_ENST00000264904|hu_mus|motif|central (ssRNA)
RNA: GGGAGUUCUACAGUCCGACGAUCGUUUGGCUGGGGUUUCUGAGACGCUCUGGAAUAUAACUCAUGUUUGCUAAUAAAUCCGGGUUUCUCUAUGAAAUUCUCUUUGCCAAUCCUCUUCUCUAUUAGUUGCUUUAGUUUCUCUUUCAACAGAGGAUUGAGCAUCA
B12: chr10:76732271:76732272:+_ENSMUSG00000020260_ENSMUST00000020493|mus_mus|FALSE|FALSE (ssRNA)
RNA: GGGAGUUCUACAGUCCGACGAUCACUGCAGCUUUCUUGAAAAAGUAUUUUAUUAAUACGCUUGGAUGUACAAAUGGAAAAUAAAUAUGUGAUUCUAGCUGGUCAGCUGACUGGGCCACGGGGCCCUGUCUGUGCUCAGAGUCUCAACAGAGGAUUGAGCAUCA
B13: chr1:150192712:150192713:-_ENSG00000143401_ENST00000314136|hu_mus|motif|central (ssRNA)
RNA: GGGAGUUCUACAGUCCGACGAUCGCACCAAACUACACCUGUGUAAAAGCAACAAUGUUUUAAUUAUGGGCUAAAAAUGUCGGAUACAUUAAGCAUGAAUUAUAAAAAUCCAGAAUCUAAAUACAGUGCUAGAGAAUUUCACUACAACAGAGGAUUGAGCAUCA
B14: chr6:40197388:40197389:+_ENSMUSG00000057716_ENSMUST00000061740|mus_mus|mus_mus_mus_hu_False|28_38 (ssRNA)
RNA: GGGAGUUCUACAGUCCGACGAUCGAGACACUGGGGUGGAUUUAUUCCACCUCUGUUUGGGUGCUAGCCACUAAGACUGUUAUUUUGGGAUUCAUGGCCUUGAAGAUCAAGAGGAAAAGGAAGAGGAUGGAAAGAGUCAAGAGUCAACAGAGGAUUGAGCAUCA

What follows are binders tested against T1, UNK ZnF1-3 (assay: nsRBNS (natural sequence RNA bind-n-seq); RBNS binding buffer (assumed for nsRBNS): 25 mM Tris pH 7.5, 150 mM KCl, 3 mM MgCl2, 0.01% Triton X-100, 500 ug/ml BSA, 20 U/ml SUPERase-In, 4 C; UNK is unkempt and MSI1 is Musashi-1; names of the RNAs are library labels; protein concentration not given here; high values mean tight binding).
B1 gave a binding signal of 0.496 enrichment R.
Binder B2 has a binding signal of 0.725 enrichment R.
Work on B3 yielded a binding signal of 1.71 enrichment R.
Binder B4 has a binding signal of 0.756 enrichment R.
In the case of B5, the binding signal is reported as 0.614 enrichment R.
In the case of B6, the binding signal is reported as 2.12 enrichment R.
B7 gave a binding signal of 0.665 enrichment R.
With B8 the binding signal was 0.799 enrichment R.
B9 showed a binding signal of 0.862 enrichment R.
With B10 the binding signal was 1.42 enrichment R.
With B11 the binding signal was 0.338 enrichment R.
Work on B12 yielded a binding signal of 0.929 enrichment R.
In the case of B13, the binding signal is reported as 1.5 enrichment R.
With B14 the binding signal was 1.41 enrichment R.
